Laboratory results reported in paper PMC10348673 (2023).

Molecular target: RIT1 A57G (17 to 197) (UniProt Q92963 partial chain, A57G)
Experiment: ITC

B1: BRAF-RBD ([…]) (domain or fragment)
chain: not shown
  Kd: 8.11 µM
